Source: the supplement of paper PMC12632987
Whole data set: some 1,800 sequences, median “median log2 fold change of GCK-ALFA target abundance (FLAG IP / Myc IP barcode read proportion)” near 0.14, cut for the lowest 2% near -0.84. Some of the results follow.

T1: TRAF2, Q12933
T1 chain: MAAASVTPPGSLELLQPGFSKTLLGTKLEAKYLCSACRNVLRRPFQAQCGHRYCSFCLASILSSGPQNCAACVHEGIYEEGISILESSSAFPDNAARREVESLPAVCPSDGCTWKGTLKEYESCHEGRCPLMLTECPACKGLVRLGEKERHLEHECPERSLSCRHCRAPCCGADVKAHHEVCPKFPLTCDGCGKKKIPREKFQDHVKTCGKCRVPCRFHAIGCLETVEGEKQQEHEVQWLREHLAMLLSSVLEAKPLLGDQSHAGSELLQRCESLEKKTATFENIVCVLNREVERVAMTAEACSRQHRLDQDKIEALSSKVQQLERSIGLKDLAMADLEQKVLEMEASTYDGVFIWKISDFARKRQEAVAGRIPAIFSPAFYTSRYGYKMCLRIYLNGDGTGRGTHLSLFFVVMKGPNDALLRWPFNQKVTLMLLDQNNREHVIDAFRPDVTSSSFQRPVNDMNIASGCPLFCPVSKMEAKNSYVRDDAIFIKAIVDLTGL

B1: traf2_out_19_16_1966 (protein)
chain: ARERLEELERELEEIEERVERLEKYFEENKETLTREEASDLLVEVSELRRRAREILQELEELEPYDPERVEELKRRAEEVIERAQRLMNELVDLYLSLQK
B2: traf2_out_11_169_781 (protein)
chain: KEAEFNRKLNDFALELNDKAKEELKKAALERAKEAGLDVAEVEAIFEANKGKSLSAIAAALIAHYRSLGREDEAAWVLKLYEELKEKINKEVTAKIKELK
B3: traf2_out_20_8_2268 (protein)
chain: MSMEEKLARAADLILEAKDLVRATVRAVLADERAPAVARRAAAALSVSVSADDTDADILARIRDRAAAALDALAAETGDPRLADARARVAAALDARAAAA
B4: traf2_out_13_95_1173 (protein)
chain: EEEKTKKEREIASEAFDKREAVATDFAARVRALIDDPEADALMDEVVRNMNIYTLRHAGAELQAAHPDKAAELAALTAAAEAEMRAIDKETTEKLNAIEE
B5: traf2_out_1_158_918 (protein)
chain: DTKRLLMLSSVELVVRDAVESARENGDEETAKALEELGKEVIELVRKLAIEEGKSAEEVIAAIEKLGAEAAAKADPETAAAIERLTRRVISAIKQVEKLM
B6: traf2_out_16_177_1463 (protein)
chain: ELSKVMDRILILSHLRKAAEAILEGRPEEAAKHLAEAEKEAEEAGDEEGLALIAEIRALAAEDTPEARAQLAALATELGKKAQEKVDLAEELIKARAEAE
B7: traf2_out_20_154_1997 (protein)
chain: PTDEEIDAVSDKLVDASARARAARVAALALENPERADEIWATARAEYANDPLMMAELDRWRARVAAGATLEEFKAEAARYAAEARRLGEELERLIEERRK
B8: traf2_out_12_165_941 (protein)
chain: SMRERTEEIVRRAEEEIRRIADAAIAEIRANPDLTPEEVAALRERAVDEMVEVRQRALNELYKAGASIDELAEASERLRRVFDEARARLDAAAAEHLAAR
B9: traf2_out_9_108_2582 (protein)
chain: MSREEELEATYAAVLALAAEFRATHELTPEQRASLDAAIEQARRLAAEGEKETAIVLLAIDLARIASEVGDAALEELLARLAAIDPRAAAAAARMAKLLK
B10: traf2_out_17_162_1596 (protein)
chain: SALEEKLKELEKRLEELEKRLKELEEKLKNIEKLTPEELTDLLVEASEIKREALELLEEIEKLKDKIPEEKYKRLSERAEEIAERAQRIANKLYRKLLEK
B11: traf2_out_13_95_1048 (protein)
chain: SAETAAKIMEIADKMEEEALKLLEEAKKEVADDPEAKAVLEEALRLAEKRGISEAIHLLREASAANPEHKEKFDALIEKLEELRRKAGREVAEVLKEAEE
B12: traf2_out_18_167_1831 (protein)
chain: EEEIEEKKNELMDKMVEWSEVKREAQELLQELKADPSKLPEVLKKLKELAEKTGKYKEEVEKIETLPKEEALKAAEELLEKIIEDAQKEMNELYKKYEEL
B13: traf2_out_17_162_1547 (protein)
chain: GELEEELRRLREELEELRRRAERLESLLPELPKLSKEELTDLLVEASEARRRALRLAEEIERLREEIGEEEAERLRREALEVAERLQRIANAIYKQLEEK
B14: traf2_out_6_156_2451 (protein)
chain: AAEEILARAEAEIEAAIEALAKASPERKIAEISRLAGAAYRALQALRAAGASLEELRAAAERLLETAERAAEEAGLDEDTRNLLLASLRAVADVALAEAA
B15: traf2_out_18_76_1957 (protein)
chain: APSPEERLAAAEARLAEVEERYQRAATRALEILPKVSPEQRSELMDLLADASEHLRKAKLALEEAKRTGDYEEQGALFEENLEKAEELIEKLEELVEELE
B16: traf2_out_11_169_804 (protein)
chain: EEAEKNREINDFALELNDEAVARLEEAALALAREAGLDPEEVRAIFEAHKGKSLSAVAAALIRHFRERGAEAAAEAVLALYEELKEEINKKMTEKIKELE
B17: traf2_out_8_144_2544 (protein)
chain: KLTRRELANEVANIIVELDELIKEVDEETKEVLIKARRELGRALNELAFGGKREEVAKELEEAAKYLEKAIELSKDNPEIKAKLEELLKRVKELIKQVKE
B18: traf2_out_13_95_1108 (protein)
chain: SKETAEKIMEIADKMLDEVLKLLNELLEIAKKKGKLEEEVQEAIDLAEYQSINEAIHKLKELAKKYPEFKEEFEKTIEEIEKLKREAGKEVAKIIKEEKE
B19: traf2_out_5_189_2322 (protein)
chain: SEKEKENEELRKLAKELSKKASELINELQEKGYSYEEIIEALLEKIKELPIEEARLFTGIAYSILEGIALANNDEELLKAAKEFRERSRKLIEEREKKAK

Target: T1, TRAF2, Q12933
Test: median log2 fold change of GCK-ALFA target abundance (FLAG IP / Myc IP barcode read proportion) (log2 ratio); each designed protein is fused to an ALFA-tag nanobody in HEK293 cells to bring the named protein to FLAG-tagged glucokinase (GCK); Myc marks an untargeted standard; higher = target protein stabilised (more abundant)
Conditions: target protein: 3xFLAG-MCP-GCK-ALFA reporter; HEK293 landing pad (RPLP)
How it was run: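 HEK293 landing-pad cells received a recombined binder library fused to the ALFA nanobody and were induced with 2 μg mL^−1 doxycycline, then transfected with a plasmid encoding a FLAG-tagged target and a Myc-tagged standard. Lysates were collected after 48 h for anti-FLAG and anti-Myc immunoprecipitation, and the circular RNA barcodes were reverse transcribed, amplified and sequenced. Target abundance for each binder is the median log2 ratio of FLAG to Myc barcode read proportions. Barcodes had to reach a proportion of at least 10^−7 in both replicates, each binder needed at least 3 barcodes per replicate, a pseudocount of 10^−6 was applied, and the two replicates were pooled.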

Row | Binder | median log2 fold change
1 | B1 | 0.225
2 | B2 | -0.065
3 | B3 | -0.12
4 | B4 | 0.0716
5 | B5 | 0.18
6 | B6 | 0.163
7 | B7 | 0.11
8 | B8 | -0.0195
9 | B9 | -0.62
10 | B10 | 0.231
11 | B11 | 0.077
12 | B12 | 0.169
13 | B13 | 0.149
14 | B14 | -0.0527
15 | B15 | 0.14
16 | B16 | 0.243
17 | B17 | -0.0477
18 | B18 | -0.387
19 | B19 | -0.793
